Inconclusive results, whose numbers are uncertain, are shown with a selection of clear calls. Where the call is inconclusive, the potency comes from a doubtful curve fit. Activity calls are given as the source filed them. Calls follow the shape of the dose curve; as a rule, active = well fitted inhibition curve with a large enough effect in the repeat runs; inconclusive = weak or mixed curves, or effect the other way; inactive = no such curve, though single readings can be large or run the other way.
Molecular target: Nuclear receptor subfamily 1 group I member 3 (Homo sapiens) (UniProt Q14994)
Chain of UniProt Q14994 (Q14994 whole entry, looked up): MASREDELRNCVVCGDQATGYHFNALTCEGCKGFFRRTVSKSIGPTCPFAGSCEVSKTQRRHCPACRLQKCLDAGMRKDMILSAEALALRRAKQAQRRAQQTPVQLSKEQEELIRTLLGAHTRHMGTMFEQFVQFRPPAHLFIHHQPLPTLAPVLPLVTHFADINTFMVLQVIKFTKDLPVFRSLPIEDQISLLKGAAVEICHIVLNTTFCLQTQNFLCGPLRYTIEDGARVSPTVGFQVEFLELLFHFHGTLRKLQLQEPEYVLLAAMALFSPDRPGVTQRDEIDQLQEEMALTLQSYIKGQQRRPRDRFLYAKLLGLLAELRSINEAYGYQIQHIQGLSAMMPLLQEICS
Assay: qHTS assay to identify small molecule antagonists of the constitutive androstane receptor (CAR) signaling pathway (AID 1224838);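 also: HepG2 cells stably expressing hCAR with CYP2B6 luciferase reporter stimulated by CITCO; nearly all actives have a fitted effect of over 40% in size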
Conditions: HepG2-CYP2B6-hCAR luciferase, CITCO-stimulated, 24 h; series mostly up to 92.4 µM; activity, negative = inhibition: at the top concentration
Source text: U.S. Tox21 Program National Center for Advancing Translational Sciences [NCATS] NIH Chemical Genomics Center [NCGC] U.S. Environmental Protection Agency [EPA] National Institutes of Environmental Health Sciences [NIEHS] National Toxicology Program [NTP] U.S. Food and Drug Administration [FDA] Tox21 Assay Overview: The constitutive androstane receptor (CAR) is a nuclear receptor which regulates multiple drug metabolizing enzymes (DMEs) and transporters. Activating CAR will generally increase the transcription and subsequent translation of CYP2B6 and CYP3A4. These two DMEs represent about 50% of the drug metabolizing potential in the body. When CAR is deactivated, the metabolizing potential in the body will decrease, subsequently increasing the toxicity in the body or lowering the therapeutic potential of a pro-drug. Recently, there have also been studies performed indicating CARs role in energy metabolism and cancer therapy. Therefore, inhibiting CARs activity could have a potential effect on diabetes and cancer. Identifying environmental toxins and compounds which modulate CAR, through the use of the Tox21 10K compound collection, will be an important step in determining the toxicity and potential therapeutic effects these factors will have on the human body.
Tox21 Assay Protocol Summary: A double-stable (hCAR and CYP2B6-2.2kb) transfected cell line, derived from human hepatoma (HepG2) cells, was utilized for the duration of the quantitative high-throughput screens. The HepG2-CYP2B6-hCAR cells suspended in DMEM culture medium supplemented with 10% FBS, 5 ug/mL blasticidin, 0.5 mg/mL geneticin, 100 U/mL penicillin and 100 ug/mL streptomycin were dispensed at 2500 cells/4 uL/well in 1536-well white solid bottom plates using a Multidrop Combi. After the assay plates were incubated at 37 C/5% CO2 for 4 hrs, 23 nL of compounds at 15 concentrations (from 5-48 columns) or positive control (from 1 to 4 columns) were transferred to the assay plates using a Pintool station. One uL of CITCO, was added using a Flying Reagent Dispenser to generate a final concentration of 50 nM CITCO inside each well. After a 24 hr incubation period at 37 C/5% CO2, four uL of ONE-Glo reagent was added into the assay plates using a Flying Reagent Dispenser. After a 30 min incubation period at room temperature, the luminescence intensity in the assay plates was measured using a ViewLux plate reader.
% is scaled to controls: 0 for no effect and ±100 for the full control effect; potency is read from the fitted curve at half-maximal effect; tags tell the direction and shape of the fitted curve.

**Q.** `CC(CN)CC(C)(C)CCN` (stereo not given) was tested. Which “activity, negative = inhibition” value did it give?
**A.** inactive: -0.454% [at 240 µM]

**Q.** How did the “activity, negative = inhibition” value turn out when `Cc1cccc([N+](=O)[O-])c1C(=O)O` was run?
**A.** inactive: -12.1%

**Q.** `CCOC(=O)Nc1ccc2c(c1)N(C(=O)CCN1CCOCC1)c1ccccc1S2` was tested. Which Potency did it give?
**A.** active: 1.19 µM

**Q.** `O=C(CCCCCCC(=O)Nc1ccccc1)NO` was tested. Which Potency did it give?
**A.** active: 3.76 µM

**Q.** How did the Potency turn out when `CC(C)(Oc1ccc(CCNC(=O)c2ccc(Cl)cc2)cc1)C(=O)O` was run?
**A.** inactive

**Q.** With `Cc1nc2n(c(=O)c1CCN1CCC(c3noc4cc(F)ccc34)CC1)CCC[C@H]2O` as the compound, how does the activity, negative = inhibition read?
**A.** inactive: 20.8% [at 19 µM]

**Q.** How did the Potency turn out when `C[Si](C)(C)N[Si](C)(C)C` was run?
**A.** inconclusive: 60.6 µM [inhibitor, partial curve]

**Q.** Which “activity, negative = inhibition” value does the source give for `CC(C)(C(=O)O)c1ccc(C(O)CCCN2CCC(C(O)(c3ccccc3)c3ccccc3)CC2)cc1` (stereo not given) here?
**A.** inactive: -13.1% [at 42.5 µM]

**Q.** Which “activity, negative = inhibition” value does the source give for `Clc1cc(Cl)cc(Cl)c1` here?
**A.** inactive: -8.2%

**Q.** How did the Potency turn out when `CCCCCCC(=O)O` was run?
**A.** inconclusive: 26.8 µM [inhibitor, partial curve, poor fit]

**Q.** `COc1cc(O)cc(O)c1` was tested. Which “activity, negative = inhibition” value did it give?
**A.** inactive: -7.3% [at 42.5 µM]

**Q.** With `Nc1ccc(S(=O)(=O)Nc2ccccn2)cc1` as the compound, how does the Potency read?
**A.** inconclusive: 33.5 µM [inhibitor, single point]

**Q.** `CCCCC(CC)COC(=O)CCCCC(=O)OCC(CC)CCCC` (stereo not given) was tested. Which Potency did it give?
**A.** inactive

**Q.** For `Cc1ccc2c(c1)c1c3n2CCNC3CCC1` (stereo not given), which Potency is on record?
**A.** active: 0.75 µM

**Q.** With `COc1ccccc1N1CCN(CC(O)COc2cc(OC)c(OC)c(OC)c2)CC1` (stereo not given) as the compound, how does the Potency read?
**A.** inconclusive: 2.37 µM [inhibitor, full curve]

**Q.** Which “activity, negative = inhibition” value does the source give for `CC1(C)C2=CCCC(C)(C)[C@]23CC[C@H]1C3` here?
**A.** inactive: -12.9%

**Q.** Which “activity, negative = inhibition” value does the source give for `O=S(=O)(O)c1ccc2cc(O)c(S(=O)(=O)O)cc2c1` here?
**A.** inactive: -2.64%

**Q.** Which Potency does the source give for `CCCNC(C)C(=O)Nc1c(C)csc1C(=O)OC` (stereo not given) here?
**A.** inconclusive: 2.98 µM [inhibitor, single point]

**Q.** With `CC(=O)N[C@@H](CCC(N)=O)C(=O)O` as the compound, how does the Potency read?
**A.** inconclusive: 33.5 µM [inhibitor, single point]

**Q.** Which Potency does the source give for `CCC(C)c1nccnc1OC` (stereo not given) here?
**A.** inconclusive: 21.7 µM [inhibitor, partial curve, poor fit]

**Q.** `CN(C)CCC[C@@]1(c2ccc(F)cc2)OCc2cc(C#N)ccc21` was tested. Which “activity, negative = inhibition” value did it give?
**A.** inactive: -8.89% [at 42.5 µM]

**Q.** Which “activity, negative = inhibition” value does the source give for `CC(C)(C)NC[C@H](O)COc1cccc2c1CCCC2=O` here?
**A.** inactive: 14.7% [at 42.5 µM]

**Q.** `COCCc1ccccn1` was tested. Which “activity, negative = inhibition” value did it give?
**A.** inactive: 10.6% [at 42.5 µM]

**Q.** `CCOC(=O)OC(=O)OCC` was tested. Which “activity, negative = inhibition” value did it give?
**A.** inactive: -8.52%

**Q.** Which “activity, negative = inhibition” value does the source give for `O=S(=O)(O)c1cccc2c(S(=O)(=O)O)cccc12` here?
**A.** inactive: 0.953%

**Q.** For `C=CCSCC1Nc2cc(Cl)c(S(N)(=O)=O)cc2S(=O)(=O)N1` (stereo not given), which Potency is on record?
**A.** inconclusive: 29.8 µM [inhibitor, partial curve]

**Q.** `CC(=O)Nc1ccn(C2COC(COC(=O)c3ccccc3)O2)c(=O)n1` (stereo not given) was tested. Which Potency did it give?
**A.** inconclusive: 0.119 µM [inhibitor, full curve]

**Q.** For `COc1ccc([N+](=O)[O-])cc1N`, which Potency is on record?
**A.** inactive

**Q.** For `CCN(CC)CC(=O)Oc1ccc(NC(C)=O)cc1`, which Potency is on record?
**A.** inconclusive: 2.98 µM [inhibitor, single point]

**Q.** `C=CC(C)=CCC=C(C)C` was tested. Which “activity, negative = inhibition” value did it give?
**A.** inactive: 0.675%

**Q.** With `Nc1nc(=O)n([C@@H]2O[C@H](CO)[C@@H](O)[C@@H]2F)cc1I` as the compound, how does the Potency read?
**A.** inconclusive: 3.35 µM [inhibitor, full curve, poor fit]

**Q.** How did the activity, negative = inhibition turn out when `O=S(O)(O)=S` was run?
**A.** inactive: -2.22% [at 8.39 µM]

**Q.** How did the Potency turn out when `NC(=O)c1c(Cl)cccc1Cl` was run?
**A.** inconclusive: 24.3 µM [inhibitor, full curve]

**Q.** For `O=[N+]([O-])c1cncn1CCN1CCOCC1`, which Potency is on record?
**A.** inconclusive: 33.5 µM [inhibitor, single point]

**Q.** With `CCCCCC1CCCC(=O)O1` (stereo not given) as the compound, how does the Potency read?
**A.** inconclusive: 0.243 µM [inhibitor, single point]

**Q.** How did the “activity, negative = inhibition” value turn out when `CCOc1ccc(O)cc1` was run?
**A.** inactive: 9.62%

**Q.** For `CN/C(=C\[N+](=O)[O-])NCCSCc1csc(CN(C)C)n1`, which Potency is on record?
**A.** inactive

**Q.** How did the “activity, negative = inhibition” value turn out when `COc1ccc(Cc2cnc(N)nc2N)cc1OC` was run?
**A.** inactive: 2.42% [at 42.5 µM]

**Q.** For `CC(=O)N1CCN(c2ccc(O)cc2)CC1`, which Potency is on record?
**A.** inconclusive: 2.98 µM [inhibitor, single point]

**Q.** Which “activity, negative = inhibition” value does the source give for `CCCc1nc(C)c2c(=O)[nH]c(-c3cc(S(=O)(=O)N4CCN(CC)CC4)ccc3OCC)nn12` here?
**A.** inactive: 4.77% [at 42.5 µM]

Reference: PubChem BioAssay (Tox21)
